From PMC4336329 (PLoS ONE, 2015)
The whole screen tested about 310,000 compounds, of which about 2,200 (0.71%) showed an effect of 50% or more. The effect is printed as a negative number. The list shows a part of the results.

The compounds below were run against human ether-à-go-go-related gene (hERG) potassium channel (human, UniProt Q12809) (assay: primary screen, population patch clamp on CHO cells stably expressing hERG).
Chain of human ether-à-go-go-related gene (hERG) potassium channel (Q12809 whole entry, looked up): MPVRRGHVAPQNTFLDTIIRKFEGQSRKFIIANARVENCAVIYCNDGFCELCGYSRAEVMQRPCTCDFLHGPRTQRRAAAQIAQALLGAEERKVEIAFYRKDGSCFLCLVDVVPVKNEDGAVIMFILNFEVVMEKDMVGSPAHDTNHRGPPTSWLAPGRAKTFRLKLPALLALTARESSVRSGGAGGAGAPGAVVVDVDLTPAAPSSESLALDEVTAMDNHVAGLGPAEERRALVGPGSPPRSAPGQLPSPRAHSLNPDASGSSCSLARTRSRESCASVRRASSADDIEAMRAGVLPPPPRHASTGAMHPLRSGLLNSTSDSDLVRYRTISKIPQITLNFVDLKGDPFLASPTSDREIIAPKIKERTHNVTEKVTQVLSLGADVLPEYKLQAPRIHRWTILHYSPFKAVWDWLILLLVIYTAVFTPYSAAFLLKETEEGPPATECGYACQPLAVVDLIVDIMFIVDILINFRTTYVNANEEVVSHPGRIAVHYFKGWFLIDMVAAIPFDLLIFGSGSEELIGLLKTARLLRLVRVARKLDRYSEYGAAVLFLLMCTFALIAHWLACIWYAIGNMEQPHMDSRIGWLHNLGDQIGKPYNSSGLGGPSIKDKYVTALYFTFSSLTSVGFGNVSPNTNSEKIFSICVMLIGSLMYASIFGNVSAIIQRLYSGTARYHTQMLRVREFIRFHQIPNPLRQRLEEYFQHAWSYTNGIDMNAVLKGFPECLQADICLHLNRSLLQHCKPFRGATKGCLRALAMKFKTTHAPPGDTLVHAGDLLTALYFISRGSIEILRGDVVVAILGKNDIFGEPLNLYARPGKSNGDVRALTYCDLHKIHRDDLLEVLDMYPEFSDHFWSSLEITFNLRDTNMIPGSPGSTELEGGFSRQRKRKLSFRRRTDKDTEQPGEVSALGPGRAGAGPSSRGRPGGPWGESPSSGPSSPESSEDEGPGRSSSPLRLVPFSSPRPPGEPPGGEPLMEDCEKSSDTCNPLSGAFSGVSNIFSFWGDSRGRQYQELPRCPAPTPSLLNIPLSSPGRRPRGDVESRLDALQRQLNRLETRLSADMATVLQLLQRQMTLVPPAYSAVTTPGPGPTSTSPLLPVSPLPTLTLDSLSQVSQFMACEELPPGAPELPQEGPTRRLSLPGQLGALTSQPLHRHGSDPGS
In the case of `CC(C)(C)c1ccc(C(=O)NN=C2CCCC2)cc1`, the “hERG current change (%, negative = inhibition) at 1uM” value is reported as 12.4%.
With `C#CCOC(=O)CN1C(=O)c2cccc3cccc(c23)C1=O` the “hERG current change (%, negative = inhibition) at 1uM” value was 6.29%.
For `CCC(C)(C)n1nnnc1C(CC(C)C)N1CCC(C(N)=O)CC1` (stereo not shown), the “hERG current change (%, negative = inhibition) at 1uM” value was 7.37%.
With `CCOc1ccc(-n2c(SCC(=O)Nc3cc(OC)c([N+](=O)[O-])cc3C)nc3ccccc32)cc1` the “hERG current change (%, negative = inhibition) at 1uM” value was 9.24%.
`Cc1nn2c(COc3ccc(NC(=O)c4ccccc4)cc3)nnc2c2ccccc12` was tested, and the “hERG current change (%, negative = inhibition) at 1uM” value was 6.55%.
With `COc1cc(-c2nc3ccc4ccccc4c3c3c2CCC3)cc(OC)c1O` the “hERG current change (%, negative = inhibition) at 1uM” value was 5.77%.
`O=C(NC(=C(Cl)Cl)P(=O)(c1ccccc1)c1ccccc1)c1ccccc1` was tested, and the “hERG current change (%, negative = inhibition) at 1uM” value was 12.4%.
`COc1ccc(Cc2nnc(SCC(=O)NC3CCCCC3)n2C)cc1` was tested, and the “hERG current change (%, negative = inhibition) at 1uM” value was 13.3%.
In the case of `COc1cccc(N2C(=O)C3CCCN3C2=S)c1` (stereo not shown), the “hERG current change (%, negative = inhibition) at 1uM” value is reported as 14%.
`O=c1[nH]c(=O)n([C@H]2C[C@H](O)[C@@H](CO)O2)cc1I` was tested, and the “hERG current change (%, negative = inhibition) at 1uM” value was 12.6%.
`CC(=O)Nc1ccc(NC(=O)C(C)OC(=O)/C=C/c2cn(-c3ccccc3)nc2-c2cccnc2)cc1` (stereo not shown) was tested, and the “hERG current change (%, negative = inhibition) at 1uM” value was 11.2%.
In the case of `Cc1ccc(CNC(=O)CCCCCNc2nc(=S)[nH]c3ccccc23)cc1`, the “hERG current change (%, negative = inhibition) at 1uM” value is reported as 1.76%.
`CCC(C)c1ccccc1OCC(=O)NN1C(=O)c2ccccc2C1=O` (stereo not shown) was tested, and the “hERG current change (%, negative = inhibition) at 1uM” value was 8.15%.
`CCOP(=O)(OCC)C(Nc1ccccn1)c1ccc(F)cc1` (stereo not shown) was tested, and the “hERG current change (%, negative = inhibition) at 1uM” value was 13.7%.
For `O=C(c1ccc(F)cc1)N1CCN(Cc2ccccc2)CC1`, the “hERG current change (%, negative = inhibition) at 1uM” value was 10.5%.
In the case of `Cc1nc2cc(NC(=O)N3c4ccccc4CC3C)ccc2o1` (stereo not shown), the “hERG current change (%, negative = inhibition) at 1uM” value is reported as 5.48%.
`O=C(NCC1CCCO1)c1ccc2c(c1)N(Cc1ccc(F)cc1)CCS2` (stereo not shown) was tested, and the “hERG current change (%, negative = inhibition) at 1uM” value was 15.3%.
In the case of `CCOC(=O)CNC(=O)N1CCCC(Cc2ccccc2)(C(=O)OCC)C1` (stereo not shown), the “hERG current change (%, negative = inhibition) at 1uM” value is reported as 11.6%.
With `O=C(CCc1nc2ccccc2[nH]c1=O)N/N=C/c1ccccc1` the “hERG current change (%, negative = inhibition) at 1uM” value was 9.37%.
For `O=C(CCNC(=O)c1ccccc1Cl)OCC(=O)c1ccccc1`, the “hERG current change (%, negative = inhibition) at 1uM” value was 14.9%.
With `CSCC[C@H](NC(=O)C(C)Oc1ccc(Cl)cc1)c1nc2ccccc2[nH]1` (stereo partly shown) the “hERG current change (%, negative = inhibition) at 1uM” value was 2.43%.
In the case of `CCCn1nc(NC(=O)c2ccccn2)c2cc3cc(C)ccc3nc21`, the “hERG current change (%, negative = inhibition) at 1uM” value is reported as -3.45%.
`O=C(Cc1cccs1)Nc1nc(-c2cccnc2)cs1` was tested, and the “hERG current change (%, negative = inhibition) at 1uM” value was 5.36%.
In the case of `CCC(C)NC(=O)c1ccccc1NC(=O)Nc1ccccc1` (stereo not shown), the “hERG current change (%, negative = inhibition) at 1uM” value is reported as 12.1%.
In the case of `CCCCc1ccc(N2C(=NC(=O)C3CCCO3)SC3CS(=O)(=O)CC32)cc1` (stereo not shown), the “hERG current change (%, negative = inhibition) at 1uM” value is reported as -14.1%.
In the case of `COCc1c(C(=O)N2CCc3ccccc32)oc2ccccc12`, the “hERG current change (%, negative = inhibition) at 1uM” value is reported as 14.3%.
In the case of `Cc1ccc(N2C(=O)CC(Nc3ccccc3)C2=O)cc1` (stereo not shown), the “hERG current change (%, negative = inhibition) at 1uM” value is reported as 14.7%.
In the case of `O=C(O)Cc1ccc2c(c1)N(S(=O)(=O)c1cccs1)CC(C(=O)O)O2` (stereo not shown), the “hERG current change (%, negative = inhibition) at 1uM” value is reported as 16.9%.
In the case of `COc1ccc(CNc2ccc3cn[nH]c3c2)c(OC)c1OC`, the “hERG current change (%, negative = inhibition) at 1uM” value is reported as -1.25%.
With `COC(=O)CSc1nc(N)c(C#N)c(-c2ccc(O)cc2)c1C#N` the “hERG current change (%, negative = inhibition) at 1uM” value was 5.67%.
`COc1cc(/C=C(\C#N)C(=O)NCC2CCCO2)cc(OC)c1OC` (stereo not shown) was tested, and the “hERG current change (%, negative = inhibition) at 1uM” value was 11.6%.
In the case of `O=C(CO)N/N=C/c1ccc(Cl)cc1`, the “hERG current change (%, negative = inhibition) at 1uM” value is reported as 18.6%.
For `CC(C)(C)C(=O)NC(=S)Nc1ccccc1N1CCCC1`, the “hERG current change (%, negative = inhibition) at 1uM” value was 4.94%.
`C[C@]12C=CC(=O)C=C1C=C[C@@H]1C2CC[C@]2(C)C(=O)CCC12` (stereo partly shown) was tested, and the “hERG current change (%, negative = inhibition) at 1uM” value was -7.2%.
With `Fc1ccc(CNC(=S)NC2CCCC2)cc1` the “hERG current change (%, negative = inhibition) at 1uM” value was 16.8%.
For `CCCc1nnc(NC(=O)CCC(=O)N2CCN(Cc3ccc(F)cc3)CC2)s1`, the “hERG current change (%, negative = inhibition) at 1uM” value was 9.42%.
With `c1ccc(N=P(N2CCOCC2)(N2CCOCC2)N2CCOCC2)cc1` the “hERG current change (%, negative = inhibition) at 1uM” value was 2.46%.
`Cc1ccc(NC(=O)C2CCCN(S(=O)(=O)c3cccc4cccnc34)C2)cc1` (stereo not shown) was tested, and the “hERG current change (%, negative = inhibition) at 1uM” value was 10.1%.
In the case of `OC1(C(F)(F)F)CC(c2ccc3ccccc3c2)=NO1` (stereo not shown), the “hERG current change (%, negative = inhibition) at 1uM” value is reported as 14.6%.
With `CC1CCN(C(=O)COC(=O)C23CC4CC(CC(O)(C4)C2)C3)CC1` the “hERG current change (%, negative = inhibition) at 1uM” value was 18.8%.
With `Cc1ccc(C)n1-c1ccc(C(=O)NN)s1` the “hERG current change (%, negative = inhibition) at 1uM” value was 1.46%.
For `COC(=O)CCCCC1SCC2NC(=O)NC21` (stereo not shown), the “hERG current change (%, negative = inhibition) at 1uM” value was 11.5%.
With `CC(C)CSc1nsc(N)n1` the “hERG current change (%, negative = inhibition) at 1uM” value was 19.8%.
For `CCOC(=O)C1=C(N)n2c(s/c(=C/c3ccccc3)c2=O)=C(C(=O)OCC)C1c1ccccc1` (stereo not shown), the “hERG current change (%, negative = inhibition) at 1uM” value was 13.1%.
For `COc1ccc(OCc2cc(-c3ccc(Cl)cc3)no2)cc1`, the “hERG current change (%, negative = inhibition) at 1uM” value was 11.6%.
`CC(=O)NC(CC(=O)OCC(=O)NCCc1ccccc1)c1ccccc1` (stereo not shown) was tested, and the “hERG current change (%, negative = inhibition) at 1uM” value was 19.7%.
In the case of `Cc1ccc(N(C)C(=O)c2ccc(CNc3c(N4CCC(C)CC4)c(=O)c3=O)cc2)cc1`, the “hERG current change (%, negative = inhibition) at 1uM” value is reported as 10.2%.
`O=C(O)c1ccc(S(=O)(=O)c2ccc3c(c2)C(=O)N(CC2CCCO2)C3=O)cc1` (stereo not shown) was tested, and the “hERG current change (%, negative = inhibition) at 1uM” value was 18.8%.
With `CN(Cc1ccccc1F)c1ccc(S(=O)(=O)N2CCCC2)cn1` the “hERG current change (%, negative = inhibition) at 1uM” value was -1.11%.
`Cc1ccsc1C1NC(=O)c2c(sc3c2CCCC3)N1` (stereo not shown) was tested, and the “hERG current change (%, negative = inhibition) at 1uM” value was 0.906%.
In the case of `C=CCNCC(=O)N1N=C(c2ccc3ccccc3c2)CC1c1ccc(OC)cc1.O=C(O)C(=O)O` (stereo not shown), the “hERG current change (%, negative = inhibition) at 1uM” value is reported as 10.2%.
With `CN(C)c1cc2c(cc1NC(=O)c1ccccc1Cl)n(C)c(=O)n2C` the “hERG current change (%, negative = inhibition) at 1uM” value was 11.2%.
For `O=C(N/N=C/c1ccccc1C(=O)O)c1cc(-c2ccc3c4c(cccc24)CC3)n[nH]1`, the “hERG current change (%, negative = inhibition) at 1uM” value was 12.9%.
With `O=C(O)c1ccccc1C(=O)NCc1ccc(F)cc1` the “hERG current change (%, negative = inhibition) at 1uM” value was 8.7%.
With `COc1cccc(CNC(=O)C2CCCN(c3cnccn3)C2)c1` (stereo not shown) the “hERG current change (%, negative = inhibition) at 1uM” value was 0.0106%.
With `CCOC(=O)Cn1nc(C)c(NC(=O)c2ccc([N+](=O)[O-])c(C)c2)c1C` the “hERG current change (%, negative = inhibition) at 1uM” value was 17.9%.
In the case of `NC(=O)c1ccsc1NC(=O)CN1C(=O)NC2(CCCCC2)C1=O`, the “hERG current change (%, negative = inhibition) at 1uM” value is reported as 15.2%.
`CCC(CC)c1nnc(NC(=O)c2nc3nc(C)cc(C)n3n2)s1` was tested, and the “hERG current change (%, negative = inhibition) at 1uM” value was 6.33%.
